# Results: paper PMC8651296, “Conformational dynamics of auto-inhibition in the ER calcium sensor STIM1” (eLife, 2021)
# B1: ctSTIM1 cysteine mutant at position 309 (N309; C437S background) (domain or fragment)
# chain: not shown
# modifications: Alexa Fluor 555 or Alexa Fluor 647 on the introduced cysteine
# notes: STIM1, human, cytosolic domain (ctSTIM1), […]; SENLYFQ stays at the C terminus after TEV cleavage; not shown: His6, C-terminal, cleaved
# B2: ctSTIM1 T307C (C437S background) (domain or fragment)
# chain: not shown
# modifications: Alexa Fluor 555 or Alexa Fluor 647 on the introduced cysteine in smFRET; disulfide-linked at C307 by CuP before the BS3 treatment
# notes: STIM1, human, cytosolic domain (ctSTIM1), […]; SENLYFQ stays at the C terminus after TEV cleavage; also called T307C-d4; not shown: His6, C-terminal, cleaved
# B3: ctSTIM1 S339C (C437S background) (domain or fragment)
# chain: not shown
# notes: as for B1
# B4: ctSTIM1 (full cytosolic domain of STIM1, […]), cysteine-free (C437S) (domain or fragment)
# chain: not shown
# notes: STIM1, human, cytosolic domain (ctSTIM1), […]; SENLYFQ stays at the C terminus after TEV cleavage; The ctSTIM1 insert carries C437S; also called wild-type ctSTIM1; WT; not shown: His6, C-terminal, cleaved
# B5: ctSTIM1 L248S + L251S (C437S background) (domain or fragment)
# chain: not shown
# notes: STIM1, human, cytosolic domain (ctSTIM1), […]; SENLYFQ stays at the C terminus after TEV cleavage; also called 2LS; 2LS-d4; not shown: His6, C-terminal, cleaved
# B6: ctSTIM1 R304W (Stormorken mutation; C437S background) (domain or fragment)
# chain: not shown
# notes: STIM1, human, cytosolic domain (ctSTIM1), […]; SENLYFQ stays at the C terminus after TEV cleavage; R304W occurs in nature; C437S was made; also called R304W-d4; not shown: His6, C-terminal, cleaved
# What was measured:
# [1] = target: the molecule itself; test: FRET or BRET; single-molecule FRET (TIRF), symmetric inter-subunit: one cysteine mutant labelled with Alexa Fluor 555 and 647 mixed 1:1; single ctSTIM1 dimers in liposomes tethered by biotin-neutravidin; 20/150 TBS pH 7.4, room temperature
# [2] = target: the molecule itself; test: cross-linking; cysteine cross-linking of ctSTIM1 dimers (5 μM) with 300 μM CuSO4 and 900 μM o-phenanthroline, 15 min, room temperature; non-reducing SDS-PAGE, Coomassie
# [3] = target: the molecule itself; test: cross-linking; lysine-lysine cross-linking with BS3 (0, 20, 50 μM; d0 or d4), ctSTIM1 10 μM, 150 mM NaCl, 20 mM HEPES pH 8.0, 30 min, room temperature; SDS-PAGE, monomer and dimer bands read by mass spectrometry
Protein,binding result [1],binding result [3],other results
B1,binds,–,–
B2,binds,–,–
B3,–,–,binding result [2]: binds
B4,–,binds,–
B5,–,binds,–
B6,–,binds,–
